Experimental data: PubChem BioAssay AID445 (National Center for Advancing Translational Sciences (NCATS), 2006)
Among all 110,000 compounds or so, about 40 (0.04%) were called active. The inconclusive results got no clear call from the source; some entries with a clear call stand among them for comparison. Calls come from the whole dose curve; as a rule, active = well fitted curve in the direction sought with a large enough effect in the signal ratio (not every such curve was filed as active); inconclusive = small, poorly fitted or top-dose-only effect, or a change in a side signal; inactive = flat fitted curve, though single readings scatter; the % refers to the signal ratio. Potencies beside an inconclusive call are fits to weak or partial responses and may not hold up.
Potency is the fitted concentration of half-maximal effect.

Experiment: IkB Signaling;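 for IkBa stabilization activation: 0% = basal untreated cells and 100% = reference inhibitor full response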
Details: ABC-DLBCL IkBa-CBG/CBR dual luciferase ratio (green luciferase fused to IkBa over red control in OCI-Ly3 lymphoma cells), 4 h; IkBa stabilization activation: at 57.1 µM (top of the series), scaled: untreated 0%, proteasome inhibitor 100% unless noted
How it was run: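 Curves were fitted separately to fusion (green), unfused (red) and ratio luminescence, then classed by r2, magnitude and activity. Cells: OCI-Ly3, 4 h compound plus doxycycline at 37C; 10 uM MG-132 defined full response.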
In the case of CCOc1ccc(NC(=O)CCc2c(C)nc3nc(-c4cc(OC)cc(OC)c4)nn3c2C)cc1, the IkBa stabilization activation is reported as inconclusive: 2.8% [signal inhibitor].
In the case of CCOC(=O)c1c(C)[nH]c(C)c1S(=O)(=O)N1CCCC(C(=O)Nc2cccc(CC)c2)C1 (centres undefined), the IkBa stabilization activation is reported as inconclusive: -1.82% [signal inhibitor].
With CC(=O)N1CCc2cc(Br)cc(S(=O)(=O)NCCc3cccc(C)c3)c21 the IkBa stabilization activation was inconclusive: 1.47% [signal inhibitor].
In the case of O=C1c2ccccc2C(=O)N1Cc1ccco1, the IkBa stabilization activation is reported as “inactive”.
With Fc1ccc(C(NCCc2ccc(Cl)cc2)c2nnc(-c3ccccc3Cl)o2)cc1 (centres undefined) the IkBa stabilization activation was inconclusive: 2.31% [signal inhibitor].
In the case of COc1cc(OC)c(NC(=O)CCc2nc(-c3ccc(C)cc3)no2)cc1Cl, the IkBa stabilization activation is reported as inconclusive: 5.06% [signal inhibitor].
With COc1ccc(-n2nnc(-c3nsc(NC(=O)c4cccc(C)c4)n3)c2C)cc1OC the IkBa stabilization activation was “inactive”.
For CC(C)c1ccc(NC(=O)Cc2ccc(NC(=O)N3CCCCc4ccccc43)cc2)cc1, the IkBa stabilization activation was inconclusive: 0.683% [signal inhibitor].
For CCC1CN(C(=O)NCc2ccc(F)cc2)c2cc(Cl)ccc2O1 (centres undefined), the IkBa stabilization activation was inconclusive: 2.08% [signal inhibitor].
With CCOc1cccc(CNC(=O)c2ccc(N3CCCC3)c(NC(=O)Nc3ccccc3CC)c2)c1 the IkBa stabilization activation was inconclusive: -0.275% [signal inhibitor].
With O=c1c(CCc2ccccc2)nc2cncnc2n1Cc1ccccc1Cl the IkBa stabilization activation was inactive: 1.11% [at 11.4 µM, scaled: untreated 0%, proteasome inhibitor 100%].
In the case of Cc1c(C(=O)NCc2cccnc2)oc2ccc(S(=O)(=O)N3CCCCCC3)cc12, the IkBa stabilization activation is reported as inconclusive: 4.67% [signal inhibitor].
For Nc1nc(Nc2cccc(Cl)c2)sc1C(=O)c1ccc(F)cc1, the IkBa stabilization activation was inconclusive: 3.85% [signal inhibitor].
In the case of CS(=O)(=O)Nc1ccc(-c2nc3ccccc3s2)cc1, the IkBa stabilization activation is reported as “inactive”.
In the case of CC1C(O)=C(c2nc3ccccc3[nH]2)C(=N)N1c1ccccc1 (centres undefined), the Potency is reported as inconclusive: 31.6 µM [rising, single point].
In the case of O=C(CSCc1nc2ccccc2[nH]1)N1CCN(c2cccc(Cl)c2)CC1, the IkBa stabilization activation is reported as inconclusive: 17.5% [signal inhibitor].
With Cc1ccc(NC(=O)Nc2c(C)n(C)n(-c3ccccc3)c2=O)c(Cl)c1 the IkBa stabilization activation was inconclusive: 1.27% [signal inhibitor].
In the case of COc1ccccc1NC(=O)c1ccc(-c2nc(COc3ccc(C)cc3)c(C)o2)cc1, the IkBa stabilization activation is reported as inconclusive: -1.2% [signal inhibitor].
In the case of CC1=C(C)C(=O)NC(Nc2nc(C)c3cc(C)cc(C)c3n2)N1 (centres undefined), the IkBa stabilization activation is reported as “inactive”.
